50 molecules from PMC6919601, “Identification of Plasmodium dipeptidyl aminopeptidase allosteric inhibitors by high throughput screening” (PLoS ONE, 2019) can be followed below.

Molecules are shown by their SMILES. Screen size: about 110,000 compounds; about 230 (0.21%) showed an effect of 50% or more. The list shows a part of the results.
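Also: 30 min substrate incubation versus DMSO and 10 µM JCP410 controls.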

DPAP1, sequence (Q8IIJ9 whole entry, looked up): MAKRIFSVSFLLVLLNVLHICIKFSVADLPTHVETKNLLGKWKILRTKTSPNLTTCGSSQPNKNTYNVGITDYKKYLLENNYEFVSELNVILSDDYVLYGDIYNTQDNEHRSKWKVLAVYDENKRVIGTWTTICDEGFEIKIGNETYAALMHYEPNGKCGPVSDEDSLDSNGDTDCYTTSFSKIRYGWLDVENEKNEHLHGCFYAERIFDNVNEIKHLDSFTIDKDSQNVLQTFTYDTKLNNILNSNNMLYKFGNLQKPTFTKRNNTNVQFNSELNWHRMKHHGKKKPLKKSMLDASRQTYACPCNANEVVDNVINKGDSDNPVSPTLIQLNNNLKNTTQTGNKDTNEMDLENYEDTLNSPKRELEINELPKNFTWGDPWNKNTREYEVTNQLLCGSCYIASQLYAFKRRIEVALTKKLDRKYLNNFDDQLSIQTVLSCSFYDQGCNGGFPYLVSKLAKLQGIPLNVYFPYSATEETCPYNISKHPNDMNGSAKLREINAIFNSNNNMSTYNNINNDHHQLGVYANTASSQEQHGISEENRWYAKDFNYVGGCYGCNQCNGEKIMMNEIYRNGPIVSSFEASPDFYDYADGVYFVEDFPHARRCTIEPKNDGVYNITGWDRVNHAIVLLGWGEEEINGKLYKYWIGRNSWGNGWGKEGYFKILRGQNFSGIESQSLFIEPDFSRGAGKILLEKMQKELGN

The assay concerns the target DPAP1 (Plasmodium falciparum, UniProt Q8IIJ9). Briefly: primary screen, percent inhibition; read by cleavage of a fluorogenic dipeptide substrate; higher = more effect of the substance. Also on record: species or system P. falciparum D10 trophozoite lysates; single well.
With `O=C(Cc1ccc(F)cc1)Nc1c(C(=O)N2CCN(c3ncccn3)CC2)oc2ccccc12`, the “% Inhibition @ 10 uM” value is -9.02%.

As to `FC(F)(F)c1ccccc1CN1CCN(c2cccc(Cl)c2)CC1`, the “% Inhibition @ 10 uM” value is -0.969%.

With `Cc1cc(C)c(C(=O)c2ccc(C(=O)Nc3ccccc3)cc2)c(C)c1`, the “% Inhibition @ 10 uM” value is recorded as -0.771%.

Consider `COC(=O)C1=CN(C(C)c2ccccc2)C=C(C(=O)OC)C1c1ccc(Cl)cc1Cl` (centres unmarked), for which the “% Inhibition @ 10 uM” value is on record as -3.4%. Under `CCOc1ccc2nc(N3CCC(C(=O)NCCc4ccc(S(N)(=O)=O)cc4)CC3)sc2c1` stands 0.137%; under `CC(C)(C)c1ccc(C(=O)Nc2ccccc2F)cc1`, -3.26%; under `CCc1ccccc1NC(=O)c1ccc2c(c1)OCO2`, 0.565%.

On to `O=C(O)c1cc(-c2ccccn2)nc2ccc(Br)cc12`, for which the “% Inhibition @ 10 uM” value is listed as -4.02%. For the molecule `N#Cc1ccccc1NC(=O)COc1ccccc1`, the “% Inhibition @ 10 uM” value is -2.18%. The same measure for `O=C1NC(c2cccc(Br)c2)C(C(=O)c2cccs2)C(O)(C(F)(F)F)N1` (centres unmarked): 8.92%; for `COc1cc(SC)ccc1C(=O)N1CCCC(C)C1` (centres unmarked): 4.3%.

As for `C=CCNC(=O)COc1cc(C)c(Cl)c(C)c1`, the “% Inhibition @ 10 uM” value was -2.27%. The same measure for `CC1=CC(C)(C)N(C(=O)Nc2ccc(F)cc2)c2ccccc21`: -0.0938%.

As to `Cc1nn(Cc2ccc(C(=O)Nc3ccc(Cl)cc3)o2)c(C)c1Cl`, the “% Inhibition @ 10 uM” value came out at 1.02%. The same measure for `COCCn1c(C)cc(C(=O)C(=O)Nc2nnc(Cc3ccccc3)s2)c1C`: 0.655%. Under `CCCNS(=O)(=O)c1cc(-c2cc(C)no2)ccc1OC` stands -8.89%; under `CCC1=NN2C(=N)/C(=C/c3ccccc3OS(=O)(=O)c3ccc(C)cc3)C(=O)N=C2S1`, 15.9%. As for `COc1cccc(OCCCN2CCN(S(=O)(=O)c3ccc(C)cc3)CC2)c1`, the “% Inhibition @ 10 uM” value is -2.9%. Under `Cc1oc2c(c1C(=O)NC1CCCCC1)C1=NCCN1C=N2` stands -6.13%; under `O=[N+]([O-])c1ccccc1S(=O)(=O)NC12CC3CC(CC(C3)C1)C2`, -0.0217%; under `CCC(=O)Nc1ccc(S(=O)(=O)Nc2ccc(F)cc2)cc1`, 1.37%.

In the case of `CCOP(=O)(Cc1cc(C(C)(C)C)c(O)c(C(C)(C)C)c1)OCC`, the “% Inhibition @ 10 uM” value was -2.72%. The same measure for `COc1ccc(-c2cc(C(F)(F)F)n3ncc(C(=O)NCCN4CCOCC4)c3n2)cc1OC`: -2.92%; for `CCOC(=O)c1c(C)n(C)c2c1cc(OC)c1ccccc12`: 6.81%; for `COc1ccc(NC(=O)CN(c2ccccc2C)S(C)(=O)=O)cc1`: -3.39%. The same measure for `Cc1nc2ccccc2c2oc(C(=O)NCCC(C)C)cc12`: -3.45%; for `CC(C)CS(=O)(=O)C1=NSC2=NC(=O)/C(=C\c3ccc(F)cc3)C(=N)N21`: 1.85%.

For the molecule `COC(=O)C1=CN(Cc2ccc(Cl)cc2)C=C(C(=O)OC)C1c1cc(OC)c(O)c(OC)c1`, the “% Inhibition @ 10 uM” value came to 1.86%. Under `N#CC1=C(N)Oc2cc(O)ccc2C1c1cccc(C(F)(F)F)c1` (centres unmarked) stands -2%; under `CSc1ccc(CN(C)CC(O)c2ccccc2)cc1` (centres unmarked), -1.75%; under `CNc1nc(N)c(C(=O)C23CC4CC(CC(C4)C2)C3)s1`, -2.77%. Under `CCc1nc2nonc2c2nc3ccccc3n12` stands -1.47%; under `CN(C)c1ccc(NC(=O)c2ccco2)cc1`, -1.32%. Under `Cn1nc(C(=O)Nc2ccccc2Cl)cc1C(=O)Nc1ccccc1Cl` stands -3.04%; under `COc1cc(OC)cc(C2C(C#N)=C(N)Oc3[nH]nc(-c4cccs4)c32)c1` (centres unmarked), -4.6%; under `CCOc1ccc(OCC)c(C2C(C#N)=C(N)Oc3nc(O)nc(O)c32)c1` (centres unmarked), 8.95%. Regarding `C/N=c1\c(NC(=O)c2sc3ccccc3c2Cl)c(O)oc2ccccc12`, the “% Inhibition @ 10 uM” value is 3.5%. As to `COc1ccc(C(=O)N2N=C3CCCCCC3C2(O)C(F)(F)F)cc1` (centres unmarked), the “% Inhibition @ 10 uM” value is -0.622%. Turning to `Cc1cc(C)c(C#N)c(SCC(=O)c2cccs2)n1`, the “% Inhibition @ 10 uM” value is reported as -3.77%. The same measure for `COc1cc2c(cc1OC)CN(C(=O)C1Cc3ccccc3CN1S(=O)(=O)c1cccs1)CC2` (centres unmarked): -1.11%. The same measure for `CCOc1ccc(C(=O)C2=C(O)C(=O)N(Cc3cccnc3)C2c2ccc(F)cc2)c(C)c1` (centres unmarked): -1.93%; for `CC1=CC2=NC(=O)/C(=C\c3cn(C)c4ccccc34)C(=N)N2O1`: 5.21%; for `Cc1ccc(CN2CC34C=CC(O3)C(C(=O)O)C4C2=O)cc1` (centres unmarked): 2.9%. Under `CC1Cc2ccccc2N1C(=O)c1c(Cl)cnn1C` (centres unmarked) stands 2.67%; under `N#Cc1cnn2c(C(F)(F)F)cc(-c3ccccc3)nc12`, -5.92%. `C=CCOc1ccc(C(=O)C2=C(O)C(=O)N(Cc3cccnc3)C2c2ccccc2F)cc1C` (centres unmarked): the “% Inhibition @ 10 uM” value was determined as 4.74%. Under `CN(C)CCN(Cc1ccccc1)C(=O)c1cc2ccc3cccnc3c2[nH]1` stands -5.57%; under `COC(=O)C1=C(N)Oc2c(oc(CO)cc2=O)C1c1cccs1` (centres unmarked), 0.0719%; under `CC(NC(=O)CCN1N=C(c2ccccc2)CCC1=O)c1ccc2c(c1)OCCO2` (centres unmarked), -4.53%. On to `CCn1cc(CN2N=C(C)CC2c2ccccc2)c(C)n1` (centres unmarked), for which the “% Inhibition @ 10 uM” value was -2.05%.
